These are yes or no findings as the source states them, for the method shown. In cells and extracts the contact can be indirect. Some results given as binding are weak or reduced against the parent protein; the word gives no strength. Where a sequence is shown, tags or fusion partners need not be part of it.
B1: selenoprotein P (SELENOP) in 293T-FLAG-LRP6 cells (protein, UniProt P49908 20-381)
chain: ESQDQSSLCKQPPAWSIRDQDPMLNSNGSVTVVALLQASUYLCILQASKLEDLRVKLKKEGYSNISYIVVNHQGISSRLKYTHLKNKVSEHIPVYQQEENQTDVWTLLNGSKDDFLIYDRCGRLVYHLGLPFSFLTFPYVEEAIKIAYCEKKCGNCSLTTLKDEDFCKRVSLATVDKTVETPSPHYHHEHHHNHGHQHLGSSELSENQQPGAPNAPTHPAPPGLHHHHKHKGQHRQGHPENRDMPASEDLQDLQKKLCRKRCINQLLCKLPTDSELAPRSUCCHCRHLIFEKTGSAITUQCKENLPSLCSUQGLRAEENITESCQURLPPAAUQISQQLIPTEASASURUKNQAKKUEUPSN
B2: V5-tagged mouse SELENOP, full-length (protein, UniProt P70274 20-380)
chain: ESQGQSSACYKAPEWYIGDQNPMLNSEGKVTVVALLQASUYLCLLQASRLEDLRIKLESQGYFNISYIVVNHQGSPSQLKHSHLKKQVSEHIAVYRQEEDGIDVWTLLNGNKDDFLIYDRCGRLVYHLGLPYSFLTFPYVEEAIKIAYCEERCGNCNLTSLEDEDFCKTVTSATANKTAEPSEAHSHHKHHNKHGQEHLGSSKPSENQQPGPSETTLPPSGLHHHHRHRGQHRQGHLESUDTTASEGLHLSLAQRKLURRGCINQLLCKLSKESEAAPSSCCCHCRHLIFEKSGSAIAUQCAENLPSLCSUQGLFAEEKVTESCQCRSPPAAUQNQPMNPMEANPNUSUDNQTRKUKUHSN
modifications: selenocysteines (U); third at U258, fourth at U299

Amino acid sequences for entries named in this document (tags omitted). Residues count along the entry.
UniProt O75581, residues 20-1613: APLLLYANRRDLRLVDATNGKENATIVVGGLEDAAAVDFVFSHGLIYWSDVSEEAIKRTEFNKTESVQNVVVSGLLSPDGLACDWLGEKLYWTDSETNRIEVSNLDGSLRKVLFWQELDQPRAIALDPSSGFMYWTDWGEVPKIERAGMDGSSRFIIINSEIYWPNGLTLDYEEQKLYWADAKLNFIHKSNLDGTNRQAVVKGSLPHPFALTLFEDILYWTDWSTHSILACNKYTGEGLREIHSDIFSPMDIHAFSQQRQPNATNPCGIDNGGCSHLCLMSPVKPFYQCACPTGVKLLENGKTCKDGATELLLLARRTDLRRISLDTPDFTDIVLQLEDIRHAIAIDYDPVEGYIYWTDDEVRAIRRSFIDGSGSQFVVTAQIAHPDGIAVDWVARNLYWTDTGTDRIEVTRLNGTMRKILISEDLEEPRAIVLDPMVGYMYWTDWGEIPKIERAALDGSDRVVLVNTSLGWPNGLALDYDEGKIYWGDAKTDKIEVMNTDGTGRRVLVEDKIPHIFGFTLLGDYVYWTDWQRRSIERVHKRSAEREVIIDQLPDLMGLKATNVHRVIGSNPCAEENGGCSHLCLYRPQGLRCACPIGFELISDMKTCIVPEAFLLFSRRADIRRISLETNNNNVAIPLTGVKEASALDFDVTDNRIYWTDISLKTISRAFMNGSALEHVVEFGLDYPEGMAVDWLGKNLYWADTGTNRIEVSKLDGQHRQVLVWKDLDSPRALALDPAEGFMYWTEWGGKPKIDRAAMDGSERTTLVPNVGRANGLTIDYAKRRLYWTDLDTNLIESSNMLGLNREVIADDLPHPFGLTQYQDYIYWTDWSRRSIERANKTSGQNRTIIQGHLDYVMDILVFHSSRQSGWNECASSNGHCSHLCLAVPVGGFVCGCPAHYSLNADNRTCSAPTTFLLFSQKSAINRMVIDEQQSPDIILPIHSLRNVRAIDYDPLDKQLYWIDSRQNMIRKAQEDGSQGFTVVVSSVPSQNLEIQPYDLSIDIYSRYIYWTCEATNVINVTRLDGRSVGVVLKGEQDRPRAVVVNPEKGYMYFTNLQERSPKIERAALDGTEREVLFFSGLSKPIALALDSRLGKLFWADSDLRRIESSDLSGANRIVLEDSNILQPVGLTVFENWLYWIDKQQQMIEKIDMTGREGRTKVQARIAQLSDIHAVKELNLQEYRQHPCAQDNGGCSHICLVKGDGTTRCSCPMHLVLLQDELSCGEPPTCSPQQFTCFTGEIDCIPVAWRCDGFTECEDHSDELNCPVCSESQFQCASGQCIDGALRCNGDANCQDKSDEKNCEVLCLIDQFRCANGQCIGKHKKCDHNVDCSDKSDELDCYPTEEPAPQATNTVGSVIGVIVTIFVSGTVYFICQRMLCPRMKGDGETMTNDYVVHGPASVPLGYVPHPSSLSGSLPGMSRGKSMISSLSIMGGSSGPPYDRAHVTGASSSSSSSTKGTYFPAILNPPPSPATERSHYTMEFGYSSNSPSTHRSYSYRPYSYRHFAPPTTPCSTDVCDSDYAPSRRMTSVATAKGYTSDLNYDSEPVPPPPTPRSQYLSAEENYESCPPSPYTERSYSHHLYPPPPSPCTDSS
UniProt Q91VN0, residues 31-1614: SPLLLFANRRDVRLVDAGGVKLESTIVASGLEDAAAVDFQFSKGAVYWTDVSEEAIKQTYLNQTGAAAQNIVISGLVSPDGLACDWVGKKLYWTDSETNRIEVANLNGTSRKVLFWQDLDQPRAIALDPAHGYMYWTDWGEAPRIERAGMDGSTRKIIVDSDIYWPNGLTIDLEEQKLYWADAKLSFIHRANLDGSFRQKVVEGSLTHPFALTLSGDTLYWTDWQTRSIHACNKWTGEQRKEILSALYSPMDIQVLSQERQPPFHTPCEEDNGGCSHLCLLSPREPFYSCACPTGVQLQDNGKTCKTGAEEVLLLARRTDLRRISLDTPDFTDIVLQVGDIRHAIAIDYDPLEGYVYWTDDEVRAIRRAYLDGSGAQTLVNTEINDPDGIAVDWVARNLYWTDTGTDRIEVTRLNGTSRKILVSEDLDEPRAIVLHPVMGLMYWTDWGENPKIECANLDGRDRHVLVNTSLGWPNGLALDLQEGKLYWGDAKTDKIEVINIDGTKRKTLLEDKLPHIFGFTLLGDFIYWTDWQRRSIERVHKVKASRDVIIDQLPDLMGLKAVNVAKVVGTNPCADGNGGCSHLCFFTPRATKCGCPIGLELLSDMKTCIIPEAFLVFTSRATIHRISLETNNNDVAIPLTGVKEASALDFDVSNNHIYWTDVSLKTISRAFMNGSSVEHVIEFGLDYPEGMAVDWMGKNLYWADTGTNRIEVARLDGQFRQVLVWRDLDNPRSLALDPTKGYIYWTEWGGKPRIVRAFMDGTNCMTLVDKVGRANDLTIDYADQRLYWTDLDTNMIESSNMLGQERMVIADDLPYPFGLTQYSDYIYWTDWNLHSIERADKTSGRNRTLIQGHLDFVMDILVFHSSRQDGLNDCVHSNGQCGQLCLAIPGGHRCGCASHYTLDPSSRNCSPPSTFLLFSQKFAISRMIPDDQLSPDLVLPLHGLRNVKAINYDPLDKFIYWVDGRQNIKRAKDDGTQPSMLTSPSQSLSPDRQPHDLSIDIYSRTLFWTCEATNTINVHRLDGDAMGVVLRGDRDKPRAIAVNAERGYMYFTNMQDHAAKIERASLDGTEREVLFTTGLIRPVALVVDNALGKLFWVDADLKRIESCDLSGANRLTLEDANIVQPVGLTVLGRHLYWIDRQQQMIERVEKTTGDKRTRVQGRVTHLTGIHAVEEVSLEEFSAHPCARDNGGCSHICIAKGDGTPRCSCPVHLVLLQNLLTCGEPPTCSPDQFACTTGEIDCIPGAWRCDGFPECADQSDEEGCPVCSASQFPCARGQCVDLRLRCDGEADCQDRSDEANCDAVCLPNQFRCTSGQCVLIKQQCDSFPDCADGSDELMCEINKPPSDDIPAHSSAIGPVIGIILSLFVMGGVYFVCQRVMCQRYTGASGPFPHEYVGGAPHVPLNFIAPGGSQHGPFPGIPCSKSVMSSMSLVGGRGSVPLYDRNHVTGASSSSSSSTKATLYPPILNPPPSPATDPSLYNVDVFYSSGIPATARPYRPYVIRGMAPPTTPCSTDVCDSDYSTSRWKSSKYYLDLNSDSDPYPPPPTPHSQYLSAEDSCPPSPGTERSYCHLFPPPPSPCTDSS
UniProt O88572, residues 20-1613: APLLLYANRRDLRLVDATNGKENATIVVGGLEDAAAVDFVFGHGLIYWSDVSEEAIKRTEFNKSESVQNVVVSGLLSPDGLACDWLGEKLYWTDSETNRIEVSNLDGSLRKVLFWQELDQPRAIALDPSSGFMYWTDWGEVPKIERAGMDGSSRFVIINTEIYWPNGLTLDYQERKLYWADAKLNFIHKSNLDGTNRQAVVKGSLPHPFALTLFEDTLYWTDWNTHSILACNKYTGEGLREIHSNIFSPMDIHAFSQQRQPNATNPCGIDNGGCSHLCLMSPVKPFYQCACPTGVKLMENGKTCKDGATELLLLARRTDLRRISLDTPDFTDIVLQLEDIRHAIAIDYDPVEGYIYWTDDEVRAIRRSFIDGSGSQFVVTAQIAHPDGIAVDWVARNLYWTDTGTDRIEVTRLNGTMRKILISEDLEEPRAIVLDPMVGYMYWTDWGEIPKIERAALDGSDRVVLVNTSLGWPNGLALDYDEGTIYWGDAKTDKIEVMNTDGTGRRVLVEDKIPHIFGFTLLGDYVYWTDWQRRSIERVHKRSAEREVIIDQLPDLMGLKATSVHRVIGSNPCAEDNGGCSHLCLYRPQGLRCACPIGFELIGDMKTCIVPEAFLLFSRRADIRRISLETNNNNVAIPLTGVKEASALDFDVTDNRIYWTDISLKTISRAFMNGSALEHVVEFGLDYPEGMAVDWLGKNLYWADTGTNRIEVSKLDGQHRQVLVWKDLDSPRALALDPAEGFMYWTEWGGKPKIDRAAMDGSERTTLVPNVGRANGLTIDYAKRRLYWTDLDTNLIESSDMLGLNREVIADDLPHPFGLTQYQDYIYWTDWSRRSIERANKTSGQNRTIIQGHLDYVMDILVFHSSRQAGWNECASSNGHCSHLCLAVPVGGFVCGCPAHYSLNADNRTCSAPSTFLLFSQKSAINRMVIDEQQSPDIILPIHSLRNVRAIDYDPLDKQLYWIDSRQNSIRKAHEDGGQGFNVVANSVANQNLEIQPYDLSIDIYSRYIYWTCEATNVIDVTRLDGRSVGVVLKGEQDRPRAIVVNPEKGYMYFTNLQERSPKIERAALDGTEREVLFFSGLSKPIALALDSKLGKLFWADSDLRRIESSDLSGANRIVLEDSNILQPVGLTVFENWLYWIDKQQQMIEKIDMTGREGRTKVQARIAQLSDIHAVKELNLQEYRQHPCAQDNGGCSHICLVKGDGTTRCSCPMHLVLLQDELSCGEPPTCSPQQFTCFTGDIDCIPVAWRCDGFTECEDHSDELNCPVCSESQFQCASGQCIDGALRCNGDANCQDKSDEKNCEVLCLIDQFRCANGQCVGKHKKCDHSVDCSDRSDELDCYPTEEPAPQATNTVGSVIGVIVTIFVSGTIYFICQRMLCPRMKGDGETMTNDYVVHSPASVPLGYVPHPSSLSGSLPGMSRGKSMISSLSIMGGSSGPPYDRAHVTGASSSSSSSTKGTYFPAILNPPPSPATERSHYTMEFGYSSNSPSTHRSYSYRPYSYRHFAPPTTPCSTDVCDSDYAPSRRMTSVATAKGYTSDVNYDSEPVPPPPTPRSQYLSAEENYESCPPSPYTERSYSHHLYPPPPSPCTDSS

Tests used:
[1] = biological target: FLAG-tagged endogenous LRP6 (293T-FLAG-LRP6 cells) (human (endogenous in 293T)) (UniProt O75581); test: condition: only cells treated with 1 mg/mL heparin for 48 hours; co-IP; FLAG IP from 293T-FLAG-LRP6 cells treated with 1 mg/mL heparin for 48 hours before the IP, blot for FLAG and SELENOP
[2] = biological target: FLAG-tagged endogenous LRP6 (293T-FLAG-LRP6 cells) (human (endogenous in 293T)) (UniProt O75581); test: co-IP; FLAG IP (ANTI-FLAG M2 Affinity Gel, elution with FLAG peptide) from 293T-FLAG-LRP6 cell lysates, blot for FLAG and SELENOP; parental 293T as control; also after 50 mM sodium chlorate for 48 hours (co-IP markedly enhanced)
[3] = biological target: FLAG-tagged mouse LRP5 (mouse) (UniProt Q91VN0); test: co-IP; co-immunoprecipitation of V5-mSELENOP constructs with FLAG-mLRP5 (Supplemental Figure 11)
[4] = biological target: FLAG-tagged mouse LRP6 (mouse) (UniProt O88572); test: co-IP; FLAG IP (ANTI-FLAG M2 Affinity Gel, 2 mg total protein, elution with FLAG peptide) from 293T cells cotransfected with FLAG-mLRP6 and mSELENOP constructs, blot for LRP6 and SELENOP or V5
[5] = biological target: FLAG-tagged mouse LRP6 (mouse) (UniProt O88572); test: proximity ligation; 293T cells transfected with FLAG-mLRP6 and V5-mSELENOP overexpression constructs

binding [1] | binding [2] | binding [3] | binding [4] | binding [5] | Binder
no binding | binds |  |  |  | B1
 |  | binds | binds | binds | B2
